# Laboratory results as given in US20110319597A1 (CAPHALON AUSTRALIA, published 2011).
# Assays:
# recombinant human TNFα = recombinant human TNFα (human, UniProt P01375 partial chain); assay: cell-based or functional assay
# [1] = target: T1, recombinant human TNFα (CytoLab) (human, UniProt P01375 partial chain); assay: ELISA on coated human TNFα
# T1 construct: coated on the ELISA plate at 1 µg/ml; also called Tumour necrosis factor alpha
Binder,"Standardized EC50, L929 neutralization assay (5-point) (recombinant human TNFα)",A450 (AU) [1]
"TNFα dAb Fc variant K45D (Fc fusion, name in Kabat numbering) DIQMTQSPSSLSASVGDRVTITCRASQAIDSYLHWYQQKPGKAPDLLIYSASNLETGVPSRFSGSGSGTDFTLTISSLLPEDFATYYCQQVVWRPFTFGQGTKVEIKRV[human IgG1 Fc with changes left out]",1.4 µg/mL,1.19 AU
"TNFα dAb Fc variant K45L (Fc fusion, name in Kabat numbering) DIQMTQSPSSLSASVGDRVTITCRASQAIDSYLHWYQQKPGKAPLLLIYSASNLETGVPSRFSGSGSGTDFTLTISSLLPEDFATYYCQQVVWRPFTFGQGTKVEIKRV[human IgG1 Fc with changes left out]",1.27 µg/mL,1.11 AU
"TNFα dAb Fc variant K45Q (Fc fusion, name in Kabat numbering) DIQMTQSPSSLSASVGDRVTITCRASQAIDSYLHWYQQKPGKAPQLLIYSASNLETGVPSRFSGSGSGTDFTLTISSLLPEDFATYYCQQVVWRPFTFGQGTKVEIKRV[human IgG1 Fc with changes left out]",4.42 µg/mL,1.06 AU
"TNFα dAb Fc variant K45S (Fc fusion, name in Kabat numbering) DIQMTQSPSSLSASVGDRVTITCRASQAIDSYLHWYQQKPGKAPSLLIYSASNLETGVPSRFSGSGSGTDFTLTISSLLPEDFATYYCQQVVWRPFTFGQGTKVEIKRV[human IgG1 Fc with changes left out]",0.537 µg/mL,1.04 AU
"TNFα dAb Fc variant K45Y (Fc fusion, name in Kabat numbering) DIQMTQSPSSLSASVGDRVTITCRASQAIDSYLHWYQQKPGKAPYLLIYSASNLETGVPSRFSGSGSGTDFTLTISSLLPEDFATYYCQQVVWRPFTFGQGTKVEIKRV[human IgG1 Fc with changes left out]",1.38 µg/mL,1.1 AU
"TNFα dAb Fc variant L79A (Fc fusion, name in Kabat numbering) DIQMTQSPSSLSASVGDRVTITCRASQAIDSYLHWYQQKPGKAPKLLIYSASNLETGVPSRFSGSGSGTDFTLTISSLAPEDFATYYCQQVVWRPFTFGQGTKVEIKRV[human IgG1 Fc with changes left out]",1.35 µg/mL,1.38 AU
"TNFα dAb Fc variant L79D (Fc fusion, name in Kabat numbering) DIQMTQSPSSLSASVGDRVTITCRASQAIDSYLHWYQQKPGKAPKLLIYSASNLETGVPSRFSGSGSGTDFTLTISSLDPEDFATYYCQQVVWRPFTFGQGTKVEIKRV[human IgG1 Fc with changes left out]",0.766 µg/mL,1.61 AU
"TNFα dAb Fc variant L79H (Fc fusion, name in Kabat numbering) DIQMTQSPSSLSASVGDRVTITCRASQAIDSYLHWYQQKPGKAPKLLIYSASNLETGVPSRFSGSGSGTDFTLTISSLHPEDFATYYCQQVVWRPFTFGQGTKVEIKRV[human IgG1 Fc with changes left out]",1.34 µg/mL,1.3 AU
"TNFα dAb Fc variant L79K (Fc fusion, name in Kabat numbering) DIQMTQSPSSLSASVGDRVTITCRASQAIDSYLHWYQQKPGKAPKLLIYSASNLETGVPSRFSGSGSGTDFTLTISSLKPEDFATYYCQQVVWRPFTFGQGTKVEIKRV[human IgG1 Fc with changes left out]",0.503 µg/mL,1.26 AU
"TNFα dAb Fc variant L79S (Fc fusion, name in Kabat numbering) DIQMTQSPSSLSASVGDRVTITCRASQAIDSYLHWYQQKPGKAPKLLIYSASNLETGVPSRFSGSGSGTDFTLTISSLSPEDFATYYCQQVVWRPFTFGQGTKVEIKRV[human IgG1 Fc with changes left out]",0.378 µg/mL,1.39 AU
"TNFα dAb Fc variant L79Y (Fc fusion, name in Kabat numbering) DIQMTQSPSSLSASVGDRVTITCRASQAIDSYLHWYQQKPGKAPKLLIYSASNLETGVPSRFSGSGSGTDFTLTISSLYPEDFATYYCQQVVWRPFTFGQGTKVEIKRV[human IgG1 Fc with changes left out]",0.392 µg/mL,1.41 AU
"TNFα dAb Fc variant P40A (Fc fusion, name in Kabat numbering) DIQMTQSPSSLSASVGDRVTITCRASQAIDSYLHWYQQKAGKAPKLLIYSASNLETGVPSRFSGSGSGTDFTLTISSLLPEDFATYYCQQVVWRPFTFGQGTKVEIKRV[human IgG1 Fc with changes left out]",1.65 µg/mL,0.901 AU
"TNFα dAb Fc variant P40D (Fc fusion, name in Kabat numbering) DIQMTQSPSSLSASVGDRVTITCRASQAIDSYLHWYQQKDGKAPKLLIYSASNLETGVPSRFSGSGSGTDFTLTISSLLPEDFATYYCQQVVWRPFTFGQGTKVEIKRV[human IgG1 Fc with changes left out]",1.64 µg/mL,1.09 AU
"TNFα dAb Fc variant P40H (Fc fusion, name in Kabat numbering) DIQMTQSPSSLSASVGDRVTITCRASQAIDSYLHWYQQKHGKAPKLLIYSASNLETGVPSRFSGSGSGTDFTLTISSLLPEDFATYYCQQVVWRPFTFGQGTKVEIKRV[human IgG1 Fc with changes left out]",3.29 µg/mL,0.99 AU
"TNFα dAb Fc variant P40K (Fc fusion, name in Kabat numbering) DIQMTQSPSSLSASVGDRVTITCRASQAIDSYLHWYQQKKGKAPKLLIYSASNLETGVPSRFSGSGSGTDFTLTISSLLPEDFATYYCQQVVWRPFTFGQGTKVEIKRV[human IgG1 Fc with changes left out]",5.29 µg/mL,1.04 AU
"TNFα dAb Fc variant P40L (Fc fusion, name in Kabat numbering) DIQMTQSPSSLSASVGDRVTITCRASQAIDSYLHWYQQKLGKAPKLLIYSASNLETGVPSRFSGSGSGTDFTLTISSLLPEDFATYYCQQVVWRPFTFGQGTKVEIKRV[human IgG1 Fc with changes left out]",5.7 µg/mL,1 AU
"TNFα dAb Fc variant P40Q (Fc fusion, name in Kabat numbering) DIQMTQSPSSLSASVGDRVTITCRASQAIDSYLHWYQQKQGKAPKLLIYSASNLETGVPSRFSGSGSGTDFTLTISSLLPEDFATYYCQQVVWRPFTFGQGTKVEIKRV[human IgG1 Fc with changes left out]",5.35 µg/mL,1.05 AU
"TNFα dAb Fc variant P40S (Fc fusion, name in Kabat numbering) DIQMTQSPSSLSASVGDRVTITCRASQAIDSYLHWYQQKSGKAPKLLIYSASNLETGVPSRFSGSGSGTDFTLTISSLLPEDFATYYCQQVVWRPFTFGQGTKVEIKRV[human IgG1 Fc with changes left out]",2.85 µg/mL,1.03 AU
"TNFα dAb Fc variant P40Y (Fc fusion, name in Kabat numbering) DIQMTQSPSSLSASVGDRVTITCRASQAIDSYLHWYQQKYGKAPKLLIYSASNLETGVPSRFSGSGSGTDFTLTISSLLPEDFATYYCQQVVWRPFTFGQGTKVEIKRV[human IgG1 Fc with changes left out]",26.7 µg/mL,1.05 AU
"TNFα dAb Fc variant P44A (Fc fusion, name in Kabat numbering) DIQMTQSPSSLSASVGDRVTITCRASQAIDSYLHWYQQKPGKAAKLLIYSASNLETGVPSRFSGSGSGTDFTLTISSLLPEDFATYYCQQVVWRPFTFGQGTKVEIKRV[human IgG1 Fc with changes left out]",24.4 µg/mL,0.261 AU
"TNFα dAb Fc variant P44D (Fc fusion, name in Kabat numbering) DIQMTQSPSSLSASVGDRVTITCRASQAIDSYLHWYQQKPGKADKLLIYSASNLETGVPSRFSGSGSGTDFTLTISSLLPEDFATYYCQQVVWRPFTFGQGTKVEIKRV[human IgG1 Fc with changes left out]",802 µg/mL,0.163 AU
"TNFα dAb Fc variant P44L (Fc fusion, name in Kabat numbering) DIQMTQSPSSLSASVGDRVTITCRASQAIDSYLHWYQQKPGKALKLLIYSASNLETGVPSRFSGSGSGTDFTLTISSLLPEDFATYYCQQVVWRPFTFGQGTKVEIKRV[human IgG1 Fc with changes left out]",6.19 µg/mL,1.11 AU
"TNFα dAb Fc variant P44S (Fc fusion, name in Kabat numbering) DIQMTQSPSSLSASVGDRVTITCRASQAIDSYLHWYQQKPGKASKLLIYSASNLETGVPSRFSGSGSGTDFTLTISSLLPEDFATYYCQQVVWRPFTFGQGTKVEIKRV[human IgG1 Fc with changes left out]",28.8 µg/mL,0.247 AU
"TNFα dAb Fc variant P44Y (Fc fusion, name in Kabat numbering) DIQMTQSPSSLSASVGDRVTITCRASQAIDSYLHWYQQKPGKAYKLLIYSASNLETGVPSRFSGSGSGTDFTLTISSLLPEDFATYYCQQVVWRPFTFGQGTKVEIKRV[human IgG1 Fc with changes left out]",27.5 µg/mL,0.339 AU
"TNFα dAb Fc variant P59A (Fc fusion, name in Kabat numbering) DIQMTQSPSSLSASVGDRVTITCRASQAIDSYLHWYQQKPGKAPKLLIYSASNLETGVASRFSGSGSGTDFTLTISSLLPEDFATYYCQQVVWRPFTFGQGTKVEIKRV[human IgG1 Fc with changes left out]",0.452 µg/mL,0.219 AU
"TNFα dAb Fc variant P59D (Fc fusion, name in Kabat numbering) DIQMTQSPSSLSASVGDRVTITCRASQAIDSYLHWYQQKPGKAPKLLIYSASNLETGVDSRFSGSGSGTDFTLTISSLLPEDFATYYCQQVVWRPFTFGQGTKVEIKRV[human IgG1 Fc with changes left out]",0.697 µg/mL,1.12 AU
